# Source: PMC4336329 (PLoS ONE, 2015)
# About 2,200 (0.71%) of roughly 310,000 compounds showed an effect of 50% or more. The effect is printed as a negative number. This is one part of the list.
# Target: human ether-à-go-go-related gene (hERG) potassium channel (human, UniProt Q12809)
# Assay: primary screen, population patch clamp on CHO cells stably expressing hERG
# human ether-à-go-go-related gene (hERG) potassium channel, sequence (Q12809 whole entry, looked up): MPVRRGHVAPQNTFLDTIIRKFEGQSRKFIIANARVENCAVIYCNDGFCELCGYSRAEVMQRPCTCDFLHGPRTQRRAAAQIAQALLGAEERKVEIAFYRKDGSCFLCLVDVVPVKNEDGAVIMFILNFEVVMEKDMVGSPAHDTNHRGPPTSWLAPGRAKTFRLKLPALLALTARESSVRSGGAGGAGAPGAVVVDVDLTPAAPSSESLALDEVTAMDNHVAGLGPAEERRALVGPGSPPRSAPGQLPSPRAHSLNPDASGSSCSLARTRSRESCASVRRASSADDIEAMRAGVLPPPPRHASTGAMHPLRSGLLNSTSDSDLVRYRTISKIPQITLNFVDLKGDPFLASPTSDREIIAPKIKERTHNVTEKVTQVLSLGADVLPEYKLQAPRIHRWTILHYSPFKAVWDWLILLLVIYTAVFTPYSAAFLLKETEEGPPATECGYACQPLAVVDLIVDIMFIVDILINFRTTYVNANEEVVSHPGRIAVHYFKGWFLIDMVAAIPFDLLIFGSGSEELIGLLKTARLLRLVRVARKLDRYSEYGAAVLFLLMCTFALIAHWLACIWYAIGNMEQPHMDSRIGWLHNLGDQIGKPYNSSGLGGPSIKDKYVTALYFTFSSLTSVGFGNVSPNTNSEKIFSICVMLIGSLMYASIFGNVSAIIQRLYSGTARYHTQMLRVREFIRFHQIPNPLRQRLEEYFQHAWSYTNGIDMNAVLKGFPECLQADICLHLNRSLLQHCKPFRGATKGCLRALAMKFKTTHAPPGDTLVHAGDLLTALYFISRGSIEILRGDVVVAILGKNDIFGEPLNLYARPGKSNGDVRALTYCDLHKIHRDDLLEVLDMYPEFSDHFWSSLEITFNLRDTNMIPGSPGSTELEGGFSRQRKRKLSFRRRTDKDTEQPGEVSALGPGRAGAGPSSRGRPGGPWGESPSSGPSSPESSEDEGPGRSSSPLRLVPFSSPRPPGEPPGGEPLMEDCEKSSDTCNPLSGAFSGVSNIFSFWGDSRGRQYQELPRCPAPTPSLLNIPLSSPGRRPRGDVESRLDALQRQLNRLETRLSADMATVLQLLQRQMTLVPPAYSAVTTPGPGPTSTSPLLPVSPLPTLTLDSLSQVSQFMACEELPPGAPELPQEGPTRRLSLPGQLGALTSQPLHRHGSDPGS
row,SMILES,"hERG current change (%, negative = inhibition) at 1uM [%]"
1,COc1cc(Cl)cc(/C=C/c2ccc3ccccc3n2)c1OC(C)=O,16.6
2,CCC(c1nnc(SCC(=O)Nc2cc(S(C)(=O)=O)ccc2Cl)n1Cc1ccccc1)N(C)C (stereo not shown),-3.44
3,O=C(N/N=C/c1cccnc1)c1sc2ccccc2c1Cl,2.92
4,COc1cccc(-c2ccc(NC(=O)C3CCCN(CCCn4cccn4)C3)cc2)c1 (stereo not shown),-1.99
5,CCN(CC)S(=O)(=O)c1ccc2[nH]c(=O)cc(C(=O)Nc3ccccc3N3CCCC3)c2c1,6.7
6,COc1ccc(CN2CC(=O)N(c3cccc(Cl)c3)C2=S)cc1OC,12.6
7,COc1ccc(C(C)=O)cc1CS(=O)(=O)CC(=O)O,23.3
8,Cc1c(C(=O)c2no[n+]([O-])c2C(=O)c2cnn(C)c2C)cnn1C,6.82
9,Cc1cc(C)c2nc(N3C(=O)C(O)=C(C(=O)c4ccco4)C3c3ccco3)sc2c1.O=C(O)C(=O)O (stereo not shown),14.6
10,COc1ccc(CCNC(=O)C(NS(=O)(=O)c2cccc3nsnc23)C(C)C)cc1OC (stereo not shown),-2.12
11,Cc1[nH]c(=O)[nH]c(=O)c1NC(=O)c1cccs1,9.62
12,CCCN1CCC(=O)N([C@H](COc2ccccc2)Cc2ccccc2)CC1,-52.4
13,O=C(c1ccc(F)cc1)C1CCN(C(=O)NC2CCCCC2)CC1,2.12
14,Cn1c(SCc2nnc(-c3ccccc3Br)o2)nc2sc3c(c2c1=O)CCC3,18.1
15,CC(CCN1CCN=C1N(C)C)c1ccccc1 (stereo not shown),1.25
16,O=C(NCCCn1ccnc1)C(=O)c1c[nH]c2ccccc12,3.2
17,Cc1noc(C)c1S(=O)(=O)N1CCC(C(=O)NC2CCN(Cc3ccccc3)CC2)CC1,-2.52
18,CC(C)(Oc1ccc(Cl)cc1)C(=O)OCC(=O)N1CCCC1,12.3
19,COc1cccc(NC(=O)C(Sc2nnc(-c3ccncc3)n2-c2ccc(Cl)cc2)c2ccccc2)c1 (stereo not shown),4.74
20,CC1c2nc3ccccc3n2C(CC(=O)NC2CC2)C(=O)N1Cc1ccccc1 (stereo not shown),14.3
21,COc1ccc(C=O)cc1OS(=O)(=O)c1ccc(NC(C)=O)cc1,7.57
22,Cc1c(Cc2ccccc2)c(=O)oc2cc(OC(C)C(=O)NCC3CCC(C(=O)O)CC3)c(Cl)cc12 (stereo not shown),24.8

row,SMILES,"hERG current change (%, negative = inhibition) at 1uM [%]"
1,COc1ccc(S(=O)(=O)N2CCC(C(=O)N3CCOCC3)CC2)cc1,11.4
2,O=C(O)C(O)Cc1c[nH]c2ccccc12 (stereo not shown),14
3,CS(=O)(=O)N(CC(=O)NC1CC2CCC1C2)c1ccc(Oc2ccccc2)cc1 (stereo not shown),9.57
4,O=C(COc1ccc(S(=O)(=O)NCc2ccccc2)cc1Cl)NCC1CCCO1 (stereo not shown),-15.8
5,O=C(Oc1ccc(Br)cc1C(=S)N1CCOCC1)c1ccc([N+](=O)[O-])cc1[N+](=O)[O-],9.22
6,CN1CCN(CCCCOc2cccc3ccccc23)CC1.Cl,4.07
7,O=C(CS(=O)(=O)Cc1ccccc1)Nc1ccc(Cl)cn1,2.58
8,CC(C)=N/N=C1\NC(=O)C(C)S1 (stereo not shown),9.38
9,O=C(COC(=O)CCc1ccc(S(=O)(=O)N2CCCCC2)cc1)Nc1cccc2ccccc12,-5.31
10,COc1ccccc1-c1c(C)oc2c(CN3CCCCC3C)c(O)ccc2c1=O (stereo not shown),6.58
11,CCOC(=O)N1CCN(C(=O)CSc2nc(-c3cccc(C)c3)ns2)CC1,9.77
12,COC(CCN(C)C)(c1ccccc1)c1ccccc1,10.4
13,CCCCCSc1nc(N2CCOCC2)c2c(c1C#N)CC(C)(C)OC2,5.34
14,COc1ccc(C(CC(=O)c2ccccc2)C2CCCCC2=O)cc1 (stereo not shown),5.25
15,COC(=O)COc1ccc(S(=O)(=O)NCc2cccnc2)cc1C,14.5
16,O=[N+]([O-])c1ccc(Oc2ccc(S(=O)(=O)N3CCCCC3)cc2)cc1,-4.52
17,CCCCN1C(=O)C(=O)N(CC(=O)Nc2cc(OCC)c(N3CCOCC3)cc2OCC)C1=O,1.17
18,O=C(Nc1ccc(Br)cc1)c1ccc2ncsc2c1,9.89
19,CCCCC1CCC(C(=O)Nc2ccc(N3CCOCC3)cc2N2CCOCC2)CC1 (stereo not shown),4.2
20,S=C(NC1CCCC1)N1CCN(c2ncccn2)CC1,6.59
21,COc1ccc([N+](=O)[O-])cc1NC(=S)NC(=O)C(C)(C)C,13
22,COC(=O)c1[nH]c2cc(OC)ccc2c1NC(=O)c1c(F)cccc1F,11.3

row,SMILES,"hERG current change (%, negative = inhibition) at 1uM [%]"
1,Cc1ccc(CN2C(=O)CNC2=S)cc1,7.76
2,Cn1cc(C(=O)Nc2ccc(Cl)c(Cl)c2)cn1,-0.514
3,c1cn(-c2ncnc3sc4c(c23)CCCC4)cn1,2.4
4,C=CCNC(=O)c1onc(CSc2cccc3ccccc23)c1C(=O)O,14.6
5,COC(=O)Cc1ccc(OC(=O)CCS(=O)(=O)c2ccc(Cl)cc2)cc1,21
6,O=C(CN1C(=O)/C(=C/c2ccccc2F)Sc2ccccc21)NCc1cccnc1,4.27
7,CC(C)(CNC(=O)CCC1CCCC1)CNC(=O)CCC1CCCC1,6.33
8,O=C(c1ccc(N2CCOCC2)c([N+](=O)[O-])c1)N1CCCC(C(F)(F)F)C1 (stereo not shown),12.3
9,Cc1cc(OC(=O)c2ccc3ccccc3c2)c([N+](=O)[O-])c(=O)[nH]1,17.3
10,Cc1ccc(C(=O)Nc2ccccc2N2CCCCC2)cc1[N+](=O)[O-],4.65
11,CC1(C)CN=C(Nc2nc3ccccc3s2)S1,-1.46
12,NC1=NC(=Nc2ccccc2)c2ccccc21,10.5
13,Cc1cc(C)cc(OCC(=O)O/N=C(\N)c2ccccn2)c1,-1.71
14,O=C(CSc1ncnc2c1cnn2-c1ccc(F)cc1)NCC1CCCO1 (stereo not shown),13.3
15,O=C1NC(=O)C(=Cc2ccc(Sc3ccccc3)o2)C(=O)N1,11.9
16,COc1ccc(C2C(C#N)=C(C)NC(C)=C2C#N)c(OC)c1,1.41
17,CCCOc1ccc(CNC(=S)NCc2ccc(OC(C)C)cc2)cc1,2.6
18,CN(CCO)c1ccc(/C=N/Nc2nncc3ccccc23)cc1,9.07
19,Cc1cc(C)c(S(=O)(=O)N2CCCOC2CNC(=O)C(=O)NCc2ccccn2)c(C)c1 (stereo not shown),6.84
20,COc1ccccc1-c1nnc(C2CCN(S(=O)(=O)c3ccccc3[N+](=O)[O-])CC2)o1,-12.7
21,CCn1c(=O)c(C(=O)NNC(=O)c2ccccc2Cl)c(O)c2ccccc21,11
22,O=C(NCCCN1CCCC1)C1CCC(=O)N1C1CCCCC1 (stereo not shown),11.9

row,SMILES,"hERG current change (%, negative = inhibition) at 1uM [%]"
1,Cc1cc(=O)oc2cc(OCC(O)Cn3ccnc3)ccc12 (stereo not shown),11.8
2,COc1ccc(CNC(=O)CN(C(=O)CCC(=O)Nc2ccccn2)c2ccc(C)cc2)cc1,-5.45
3,OCC1CCCCN1C(=S)Nc1ccc(Cl)cc1Cl (stereo not shown),11.1
4,O=C(NCc1ccco1)c1ccccc1-c1ccc(C(F)(F)F)cc1,6.7
5,CC1(C)CC2=C(CO1)C(=S)NC(c1ccccc1)N2CC1CCCO1 (stereo not shown),7.6
6,Fc1ccc(C2=CC(c3ccc(Br)o3)n3ncnc3N2)cc1 (stereo not shown),8
7,COc1ccc(NC(=O)N2CCC(c3nc(-c4cccs4)no3)CC2)cc1,1.88
8,CC(=O)c1c(C)nc2ccc(Br)cc2c1-c1ccccc1,9.5
9,COC(=O)c1ccc(CN(C)S(=O)(=O)c2cccs2)cc1,16.9
10,Cc1csc(NC(=O)CS(=O)(=O)Cc2ccccc2)n1,8.42
11,COc1ccc(-c2nc(SCC(=O)NC3CCCC3)c(-c3ccc(OC)cc3)[nH]2)cc1,9.09
12,N/C(CSc1ccc(Cl)cc1)=N\NC(=O)c1ccncc1,7.45
13,Cc1ccccc1NC(=O)NC1(C(=O)NCCCN2CCOCC2)CCCCC1,5.9
14,CC(COc1ccc(/C=C/c2ccccc2)cc1)[N+](C)(C)C.[I-] (stereo not shown),-2.45
15,COc1ccc(Cl)cc1CNCCCSc1ncccn1.Cl,14.9
16,COCc1cc(=O)[nH]c(Nc2nc(C)c3cc(OC)ccc3n2)n1,10
17,Cc1ccccc1Cn1cc(NC(=O)c2nn(C)cc2Cl)cn1,8.33
18,CC(=O)c1cccc(NCC(=O)c2ccc(C)c([N+](=O)[O-])c2)c1,11
19,COc1ccc(N(CC(=O)N/N=C(\C)c2ccc(OC)c(OC)c2)S(=O)(=O)c2ccccc2)cc1,14.3
20,Cc1cccc(C)c1NC(=O)CSCc1cccc(CSCC(=O)Nc2c(C)cccc2C)n1,17.3
21,CCCCn1c(N)c(N(CC(C)C)C(=O)c2ccco2)c(=O)[nH]c1=O,11.9
22,COc1ccc(N2CCN(C(c3ccccc3OC)c3nnnn3Cc3ccco3)CC2)cc1 (stereo not shown),9.42
